Assay results as given in PubChem BioAssay AID1347073 (National Center for Advancing Translational Sciences (NCATS), 2019).
Hit rate of the full screen: of about 45,000 compounds, about 200 (0.44%) were called active. Roughly 7% stayed inconclusive and do not appear here. Calls come from the whole dose curve; as a rule, active = well fitted activation curve with a large enough effect; inconclusive = small, poorly fitted or top-dose-only effect; inactive = no such curve, though single readings can be large or run the other way. The list shows a part of the results.

Assay: qHTS of TDP-43 Inhibitors: NCGC Sytravon Library Screen; note: 0% is about no effect; nearly all actives have a fitted effect of over 55% in size
Settings: yeast TDP-43 toxicity rescue, BacTiter-Glo growth, 24 h; series mostly up to 46.1 µM; growth rescue (activation): at the top concentration
Procedure, shortened: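 TDP-43-expressing yeast, pregrown in raffinose, seeded at OD600 0.02 in galactose medium with compound for 24 hr at 30 deg C. Growth read by BacTiter-Glo luminescence, so rescue of toxicity appears as activation.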

| Compound | growth rescue (activation) |
| --- | --- |
| Cc1noc(C)c1CN(C(=S)NC1CC1)c1ccccc1 | inactive: -3.97% |
| Cc1c(NC(=O)C2CCN(S(=O)(=O)c3ccccc3)CC2)c(=O)n(-c2ccccc2)n1C | inactive: -8.12% |
| Cc1c(-c2cc(C(=O)O)on2)cnn1C | inactive: -4.72% |
| CCOc1ccc(NC(=O)c2cc(OC)nc3ccccc23)cc1 | inactive: 12.4% |
| Cc1ccc(CSCCNC(=O)c2ccc(NS(C)(=O)=O)cc2)cc1 | inactive: -2.1% |
| Cc1cc(N(C)/N=C/c2ccccc2)nc(-c2ccccc2O)n1 | inactive: 5.73% |
| O=S(=O)(c1cccc(C(F)(F)F)c1)N1CCN(C(=S)NCc2ccco2)CC1 | inactive: -5.09% |
| CCCOC(=O)CN1C(=O)c2ccccc2C1=O | inactive: -2.24% |
| COc1cccc(/C=C/C(=O)Nc2cc(S(=O)(=O)N3CCOCC3)ccc2OC)c1 | inactive: 6.04% |
| COCCCNCC(O)C(F)(F)F (configuration not stated) | inactive: -7.98% |
| CS(=O)(=O)Nc1ccc(C(=O)NCCSCc2ccccc2)cc1 | inactive: 11% |
| COc1ccc(N(C)C(=O)CC2(CC(=O)O)CCCCC2)cc1 | inactive: 15.5% |
| CN1CCN(S(=O)(=O)c2cccc(C(=O)N3CCc4ccccc43)c2)CC1 | inactive: -14.3% |
| O=C(C[n+]1cc(-c2ccccc2)n2c1CCC2)c1cccs1 | inactive: 3.98% |
| Cc1ccc(C(=O)NCCCNC(=O)c2ccco2)cc1 | inactive: 9.36% |
| Cc1cnc(C(=O)NC(Cc2ccccc2)c2ccccc2)cn1 (configuration not stated) | inactive: 7.65% |
| Cc1cc(S(=O)(=O)NCCCN2CCOCC2)c(Cl)cc1Cl | inactive: 6.55% |
| O=C(O)Cc1ccc(C(=O)c2ccccc2F)s1 | inactive: 21.8% |
| CCSc1ccccc1C(=O)Nc1ccc(S(=O)(=O)NC(C)=O)cc1 | inactive: 1.01% |
| CCCCn1nnnc1SCC(=O)NC1CCCCC1 | inactive: -3.22% |
| O=C(CC1COc2ccccc2O1)NCCc1ccccc1 (configuration not stated) | inactive: 17.3% |
| COC(=O)c1ccccc1NC(=O)c1cnn2cccnc12 | inactive: 17.8% |

| Compound | growth rescue (activation) |
| --- | --- |
| CCCCOc1ccc(C(=O)N2CCN(CC(=O)Nc3ccc(C)cc3)CC2)cc1OC | inactive: 4.59% |
| O=C(NCc1ccc(F)cc1)c1ccc(CS(=O)(=O)Cc2ccc(F)cc2)o1 | inactive: 13.2% |
| CC(=O)c1nc(N2C(=O)CC(Cc3ccc(C)cc3)C2=O)sc1C (configuration not stated) | inactive: 15.2% |
| COC(=O)c1cc(NC(=O)c2ccccc2F)cc(C(=O)OC)c1 | inactive: 0.52% |
| COc1ccccc1OCC(=O)NCCSCc1ccccc1Cl | inactive: 23.1% |
| O=c1cc(O)c2sc(Nc3ccc(Cl)c(F)c3)nc2[nH]1 | inactive: 20.4% |
| Cc1ccc(C2=NO[C@@](CC(=O)O)(C(=O)Nc3ccc4c(c3)OCCO4)C2)cc1 | inactive: 1.2% |
| CCC(NC(=O)c1cc(COc2c(F)cccc2F)on1)c1ccncc1 (configuration not stated) | inactive: -3.17% |
| CCc1nn(CC(=O)N2CCCCC2)c(=O)c2cc3sc(C)cc3n12 | inactive: -4.95% |
| CNC(=S)N(Cc1cccs1)Cc1cc2cc(OC)ccc2[nH]c1=O | inactive: 9.5% |
| O=C(c1n[nH]c(=O)c2ccccc12)N1CCN(Cc2ccc3c(c2)OCO3)CC1 | inactive: 27.7% |
| COc1ccc(S(=O)(=O)N(C)C)cc1NCC(=O)Nc1cccc(C#N)c1 | inactive: 11% |
| COCCC(=O)N1CCC(Oc2ccc(C(=O)N3C[C@@H](C)O[C@@H](C)C3)cc2)CC1 | inactive: -12.7% |
| CCCn1c(=O)c(C(=O)Nc2ncccc2C)c(O)c2ccccc21 | inactive: -23.9% |
| Cc1ccc(NC(=O)CC(NCC2CCCO2)C(=O)O)cc1C (configuration not stated) | inactive: 4.77% |
| CC(OC(=O)c1ccc2noc(-c3ccccc3)c2c1)C(N)=O (configuration not stated) | inactive: 4.58% |
| O=c1oc2ccccc2c(Nc2ccccc2)c1CN1CCCCC1 | inactive: -2.73% |
| CCN(CC)c1ccc(NC(=S)NCC2CCCO2)cc1 (configuration not stated) | inactive: -5.51% |
| O=C(NC(Cc1c[nH]c2ccccc12)C(=O)O)/C(=C/c1ccco1)NC(=O)c1ccccc1 (configuration not stated) | inactive: 2.4% |
| CCc1ccc(/C=N/NC(=O)c2ccccn2)cc1 | inactive: 13% |
| CCCC(C)NC(=O)c1ccccc1SC (configuration not stated) | inactive: -8.06% |
| C=CCN(CC=C)C(=O)CN1C(=O)NC(Cc2c[nH]c3ccccc23)C1=O (configuration not stated) | inactive: -2.86% |

| Compound | growth rescue (activation) |
| --- | --- |
| Cc1cc(C(=O)NP(=O)(N2CCOCC2)N2CCOCC2)c(C)n1-c1ccc(N(C)C)cc1 | inactive: 11.2% |
| COC1CCCN(Cc2cn(C)nc2-c2ccc(Oc3ccccc3)cc2)C1 (configuration not stated) | inactive: -1.71% |
| O=C(COC(=O)c1cc2ccccc2oc1=O)c1cccc([N+](=O)[O-])c1 | inactive: 13.7% |
| Cc1cc(SCC(=O)N(C)C2CCS(=O)(=O)C2)nc2c(C)cccc12 (configuration not stated) | inactive: 0.855% |
| C=CCNc1ncnc2c1ncn2[C@H]1CN(Cc2ccccc2)C[C@@H](CO)O1 | inactive: -1.44% |
| CCc1ccccc1N(C(=O)c1snc(C(N)=O)c1N)C(C(=O)NCC1CCCO1)c1ccc(OC)c(OC)c1 (configuration not stated) | inactive: 1.13% |
| CCOc1cc(NC(=S)NCc2ccco2)c(OCC)cc1NC(=O)CC | inactive: 6.18% |
| CCCNS(=O)(=O)c1ccc(CCC(=O)N2CCN(c3ccc(F)cc3)CC2)cc1 | inactive: 15.7% |
| CCC(Oc1ccc(Cl)cc1)C(=O)N1CC(=O)Nc2ccccc21 (configuration not stated) | inactive: 3.5% |
| O=C(CSc1nc2nn(-c3ccccc3)c(=O)c-2c2n1CCCCC2)Nc1ccc(F)c(F)c1 | inactive: -2.93% |
| CC(C)Nc1nnc(SCC(=O)NCc2ccc3c(c2)OCO3)s1 | inactive: 3.72% |
| CC1(C(=O)NS(=O)(=O)C2CC2)CCCN(C(=O)c2cccc(OC(F)(F)F)c2)C1 (configuration not stated) | inactive: 1.35% |
| COC(=O)N=Nc1c(O)n(Cc2ccccc2)c2ccccc12 | inactive: -2.83% |
| CCC1CCC(C(=O)NC(C(=O)NCCN2CCOCC2)C(C)C)CC1 (configuration not stated) | inactive: 2.23% |
| NC(CO)c1csc(Nc2ccc(C(F)(F)F)cn2)n1 (configuration not stated) | inactive: 21.5% |
| Cc1cc(F)ccc1S(=O)(=O)Nc1ccccc1C(=O)Nc1ncn[nH]1 | inactive: -9.7% |
| COc1ccccc1CC(=O)NNC(=O)c1cccs1 | inactive: -10.5% |
| Cc1cc(=O)[nH]c(N/N=C/c2c(C)oc3ccccc23)n1 | inactive: 2.63% |
| O=C(c1ccc(F)cc1)C(CCCCCC(CN1CCOCC1)C(=O)c1ccc(F)cc1)CN1CCOCC1 (configuration not stated) | inactive: -8.91% |
| CCc1ccc(NC(=O)CN2C(=O)C(c3ccc(C)cc3)=NC23CCCCC3)cc1 | inactive: 18.7% |
| Cc1ccc(SCC(=O)NC(=O)Nc2ccc3c(c2)OCCO3)cc1C | inactive: 5.65% |
| CN(C)C(CNC(=O)c1cc(Br)ccc1Cl)c1ccco1 (configuration not stated) | inactive: 6.85% |

| Compound | growth rescue (activation) |
| --- | --- |
| CN(C)c1ccc(NC(=S)NC(=O)/C=C/c2ccco2)cc1 | inactive: 16.6% |
| NC(=O)C1(N2CCCCC2)CCN(C(=O)NC2CCCCC2)CC1 | inactive: 3.18% |
| CCOc1ccccc1CNC(=O)C1CCN(c2nnc(-n3c(C)ccc3C)s2)CC1 | inactive: 6.64% |
| COc1ccc(CC(=O)OCC(=O)Nc2ccc(C(=O)Nc3ccc(OC)cc3)cc2)cc1 | inactive: -4.03% |
| CC(=O)c1cccc(N(C(=O)c2ccco2)C(C(=O)NC2CCCC2)c2ccc(N3CCOCC3)cc2)c1 (configuration not stated) | inactive: 16.9% |
| COc1cccc(C(C(=O)NC2CCCCC2)N(C(=O)c2csnn2)C2CC2)c1 (configuration not stated) | inactive: -5.95% |
| CC(=O)Nc1ccc(S(=O)(=O)N2CCC(NC(=O)C(Cc3cccc(F)c3)NC(C)=O)CC2)cc1 (configuration not stated) | inactive: 13.4% |
| CCOc1ccc(C2NC(=O)Cc3cc(OC)c(OC)cc32)cc1 (configuration not stated) | inactive: -6.67% |
| Cc1nc(=O)c(-c2ccccc2)c(C)n1CCCCCC(=O)O | inactive: 10.1% |
| CCCc1[nH]n(-c2nc3ccccc3s2)c(=O)c1C=NCCCN(CC)CC | inactive: -1.45% |
| CC(CCc1ccccc1)NC(=O)Cc1ccc([N+](=O)[O-])cc1 (configuration not stated) | inactive: 12.1% |
| NS(=O)(=O)c1ccc(NC(=O)CSc2ncn[nH]2)cc1 | inactive: -3.11% |
| COc1ccc(CC(=O)OCc2csc(CC(=O)Nc3ccc(C)cc3)n2)cc1 | inactive: 1.64% |
| Cc1nc(-c2ccccc2)sc1C(=O)NN | inactive: 17% |
| Cc1nn(C)cc1[C@@H]1C[C@H]2CN(Cc3cccc(Cl)c3)C(=O)[C@]23CCCN13 | inactive: -6.88% |
| CC(C)(O)C#Cc1ccc(CN2CCN(Cc3ccccc3)C(CCO)C2)s1 (configuration not stated) | inactive: 4.61% |
| COc1cccc(CNC(=O)C2CCN(c3nnc(-n4c(C)ccc4C)s3)CC2)c1OC | inactive: -2.87% |
| COc1cc(NC(=O)CN2CCN(C(=O)C3CCCO3)CC2)c(OC)cc1Cl (configuration not stated) | inactive: 3.97% |
| Cc1ccc(Cl)cc1N(C(=O)c1csnn1)C(C(=O)NC1CCCC1)c1ccco1 (configuration not stated) | inactive: 14.1% |
| CCCn1c(=O)c(C(=O)NCc2ccc(OC)c(OC)c2)c(O)c2ccccc21 | inactive: 12.7% |
| COc1ccc(S(=O)(=O)N2CCN(CCCOc3ccc(F)cc3)CC2)cc1OC | inactive: -4.28% |
| O=C(c1ccco1)N1N=C2CCCCCC2C1(O)C(F)(F)F (configuration not stated) | inactive: 29% |

| Compound | growth rescue (activation) |
| --- | --- |
| Cc1cccn2c(=O)c3cc(C(=O)NC4CCCC4)c(=N)n(C4CCCCC4)c3nc12 | inactive: 9.14% |
| CCNC(=S)N1CCN(S(=O)(=O)/C=C/c2ccccc2)CC1 | inactive: -13% |
| CCOC(=O)C1CCN(C(=O)CNC(=O)c2nn(-c3ccc(OC)cc3OC)c(=O)c3ccccc23)CC1 | inactive: -9.75% |
| CN(C)C(=S)Nc1ccc2ccccc2c1 | inactive: 0.382% |
| CCOc1ccc(/C=N/NC2=NCCCCC2)cc1 | inactive: -3.53% |
| N#Cc1ccc(C(=O)Nc2ccc(S(=O)(=O)NC3=NCCCCC3)cc2)cc1 | inactive: 7.08% |
| S=C(NNc1ccnc2cc(Cl)ccc12)Nc1ccccc1Cl | inactive: 3.52% |
| CC1(C(=O)NCCc2ccccc2)Cc2c(-c3cccc(C(N)=O)c3)ccnc2O1 (configuration not stated) | inactive: 9.53% |
| CN(C)c1oc(COc2ccc(F)cc2)nc1C#N | inactive: 31.2% |
| CCOc1ccc(N(CC(=O)N2CCCCC2)S(=O)(=O)c2ccc(Cl)cc2)cc1 | inactive: -14.1% |
| Cc1cc(S(=O)(=O)NCc2ccccc2)ccc1OCC(=O)NCc1cccnc1 | inactive: 4.68% |
| CCC(Sc1nc2ccccc2o1)C(=O)O (configuration not stated) | inactive: -0.0658% |
| CC(=O)Nc1cccc(-c2ccnc3c2CC(C(=O)Nc2ccc(Cl)cc2)O3)c1 (configuration not stated) | inactive: 11.8% |
| O=C1CSC(c2ccncc2)N1Cc1ccccc1 (configuration not stated) | inactive: 1.09% |
| COc1ccc(S(=O)(=O)N(C)C)cc1NC(=O)CSc1nnc(-c2cccnc2)o1 | inactive: 10.4% |
| COc1cccc(-c2nnn(C/C(N)=N/O)n2)c1 | inactive: 4.09% |
| CC(=O)c1ccc(NC(=O)CN2c3cccc4cccc(c34)S2(=O)=O)cc1 | inactive: 10.8% |
| Cc1ccc(C)c(Cn2nnc3c(=O)[nH]c(C4CCCN(S(=O)(=O)Cc5ccccc5)C4)nc32)c1 (configuration not stated) | inactive: 8.08% |
| CCOC(=O)C1(Cc2ccc(OC)cc2)CCN(C(=O)CC2CCC(=O)N2)CC1 (configuration not stated) | inactive: -3.07% |
